Out of some 150,000 compounds screened, about 540 (0.36%) showed an effect of 50% or more. The list shows a part of the results.
Each compound was assayed on Plasmodium falciparum (assay: Primary screen in NF54 nanoGlo assay, in single point, at 2uM, 72h; a lower Z score goes with more inhibition). Conditions: timepoint 72 hour.
Format: functional, Erythrocyte

Structure (SMILES)	% Inhibition [%]	Z score
c1cc(N2CC3(CCOCC3)C2)nc(-c2nccs2)n1	5	-0.9
Cc1cnn([C@@H](C)C2CC2)c1NC(=O)c1scc2c1OCCO2	-1	0.2
Nc1cc(Cl)ccc1C(=O)OCc1nnnn1-c1ccccc1	10	-1.33
C[C@@H](CC(=O)NCc1ccc(Cl)cc1)Cc1nnc2c(=O)n(-c3cccc(F)c3)ccn12	-2	0.32
CC1CN(CCOC2CCN(C(=O)CCCn3cccn3)CC2)CC(C)O1 (configuration not stated)	-8	0.91
Cc1c(Br)cc(C#N)c(=O)n1Cc1ccn(C(C)C)n1	-16	3.45
CCn1cc(-c2ccc(C(=O)NCCc3ccc4c(c3)OCO4)cc2)c(C)n1	-9	0.97
CC(C)NC(=O)N1CC(n2ccnn2)C1	-2	0.28
CC(C)(C)c1ncc(C(=O)OCCC(F)(F)F)s1	-16	2.45
COCCNC(=O)N[C@@H](c1ccsc1)c1cccs1	-6	1.04
CN(C)S(=O)(=O)N1C[C@H]2CC[C@@H](C1)N(C(=O)CCc1ccncc1)C2	-27	2.87
COc1ccc(-c2ncn[nH]2)c(-n2nc(C)cc2C)c1	9	-1.33
C[C@@H](CNC(=O)c1cc2nccc(C(F)(F)F)n2n1)N(C)C1CC1	29	-3.31
CCc1ccc(CNCc2ccc(N(C)CC)nc2)s1	-13	1.7
Cc1cc[nH]c1C(=O)Nc1ccnn1[C@H]1CCN(Cc2ccccc2)C1	-11	0.91
NC(=O)Cc1cccc(OCCc2ccc3c(c2)CCO3)c1	-7	1.22
CC(C)C(=O)Nc1cc(C(=O)OCc2cnn(C)c2)c(F)cc1F	-1	0.12
COC(C)c1nsc(NC(CN)C2CCCCC2)n1 (configuration not stated)	1	-0.21
Cc1ccc(Cn2nccc2N[C@H]2CCCOC2)s1	-2	0.22
CNc1cc(N2CCn3nc(CNc4cnccn4)cc3C2)nc(N)n1	-12	1.17
COCCN1C(=O)[C@@H]2CC[C@H]1CN(Cc1nc(-c3ccc(C)cc3)no1)C2	-5	0.94
CC(C)(O)CNC(=O)Nc1ccccc1N1CC2CCC1C2 (configuration not stated)	-7	0.9

Structure (SMILES)	% Inhibition [%]	Z score
COc1ccc(S(=O)(=O)N(Cc2c(C)nn(-c3ccccc3)c2Oc2ccc(F)cc2F)CC2CC2)cc1	-8	1.29
Cc1ccc2cc(CN3CCC[C@H](N)CC3)c(N3CCOCC3)nc2c1	7	-1.11
COCc1ncc(Br)c(O)n1	9	-1.12
CCOCCN1CCC=C([C@H](C)NC(=O)c2cccc(C#N)c2)C1	4	-0.7
COCCCNC(=O)CCc1c(-c2cccc(OC)c2)nc2ccc(-c3ccc(C(C)=O)cc3)cn12	11	-1.74
CCO[C@H]1[C@H](NC(=O)c2cccnc2)c2ccccc2C12CCN(C(=O)c1cc(F)cc(F)c1)CC2	-2	0.45
O=C(COC(=O)c1cccc2ccccc12)NC(=O)NC1CCCC1	-3	0.37
Nc1cc(S(=O)(=O)Nc2ccc(Cl)cc2)ccc1N1CCOCC1	-6	1.03
CN1CCc2ncnc(N3CCN(C(=O)C4CCCC4)CC3)c2C1	-4	0.69
COCC[C@H]1CN(Cc2cc(C(C)=O)cn2C)CCO1	-4	0.4
Cc1ccc2cc1OCCCn1cc(nn1)CCN(CCC(C)C)CCNC(=O)[C@H]([C@@H](C)O)NC2=O	-13	2.5
CC(=O)Oc1c(-c2ccc(NC(=O)CC(C)C)cc2)c(C(C)C)nn1-c1ccccc1	-15	1.72
Cn1ccc(NC(=O)c2ccc(=O)[nH]n2)n1	-7	1.49
Cc1ccn2c(NC(=O)[C@@H]3CC=CCC3)nnc2n1	0	0.09
CC[C@H](C)CS(=O)(=O)NC(=O)c1cc(C(C)(C)C)on1	4	-0.47
Cc1sc2ncnc(N[C@H]3CCN(C(=O)c4ccccn4)C[C@@H]3O)c2c1C	-4	0.55
CCc1nccn1CCC(=O)NCC1CCN(C(=O)c2nccnc2O)CC1	5	-0.63
CN(C)c1nc(N2CCN(C3CCCCC3)CC2)nc2c1CN(C(=O)c1cccc(F)c1)CC2	23	-2.58
Cc1c(C(=O)NCCN2CCCC(C)(C)C2)nnn1-c1ccc(F)c(F)c1	-11	1.16
CCN(CCOc1ccccc1F)C(=O)c1ccc2[nH]nnc2c1	-3	0.56
Cc1cccc(NC(=O)NC[C@H](O)C2CCCCC2)n1	5	-0.58
C[C@H]1CN(Cc2cccc(O)c2Cl)CC(=O)N1C	-5	0.89

Structure (SMILES)	% Inhibition [%]	Z score
Cn1cc(CN2CCN3C(=O)N(c4ccccc4)C[C@H]3C2)cn1	-7	1.05
c1ccc(Cc2cn3c(-c4ccccc4)cnc3s2)cc1	-8	1.49
CC(C)(C)c1ccc([C@@H](CC(=O)NCCN2CCOCC2)c2c[nH]c3ccccc23)cc1	-4	0.47
CCO[C@@H](C)C(=O)N1CCC2(CCC(=O)N(CCc3c[nH]cn3)C2)CC1	-1	0.21
C[C@@H](CCN1CCCC1=O)NC(=O)Cc1ccccc1O	-4	0.74
COC1CCC2OCCN(C(=O)c3occc3C)C2C1 (configuration not stated)	9	-0.86
Cc1cccc(CN2C[C@@H](F)[C@@H](OCc3nc4ncccc4[nH]3)C2)n1	-11	1.44
CC(C)c1noc(C2CCN(C(=O)C(=O)c3cccn3C)CC2)n1	7	-0.69
COc1nccnc1NC1CCN(C(=O)c2ccc3cc[nH]c3c2)CC1	-9	1.14
O=C(Nc1cc(N2CCCS2(=O)=O)ccc1O)c1cccc(Oc2cccc(C(F)(F)F)c2)c1	99	-18.11
Cc1nnsc1C(=O)Nc1nnc(COc2ccccc2)o1	8	-1.14
Cc1ccc(NC(=O)CCc2nc(-c3nn(-c4ccc(F)cc4)c(=O)n(C)c3=O)no2)cc1F	-4	0.79
COc1cc2c(cc1-c1cn(Cc3cncn3C3CC3)nn1)CCC2	5	-0.75
O=C(CCn1ccnc1)N1CCC[C@H](CCc2ccccc2C(F)(F)F)C1	-5	1.03
CC1(Cn2cc(-c3nc(-c4ccncc4)no3)nn2)COC1	-4	0.77
Cn1nccc1C(=O)NC[C@H]1CCCN(c2cnsn2)C1	-3	0.53
Cc1cc(C)cc(C(=O)N2CCC[C@H]2c2nc(-c3ccccc3)no2)c1	-10	1.12
O=C(NCc1ncc[nH]1)C1(c2cccc(Cl)c2)CCCCC1	-3	0.35
COc1ccc(OCC(=O)Nc2cc(C)nn2-c2nc3c(cnn3-c3ccc(C)c(C)c3)c(=O)[nH]2)cc1	8	-1.17
COCc1nc(CN(CCO)C(C)C)cs1	-13	1.15
Cc1noc(C2(NC(=O)Nc3ccc(F)c(C(=O)N(C)C)c3)CCOCC2)n1	-3	0.58
c1cc(CCn2ccc(NC3CCCCCC3)n2)ccn1	-3	0.6

Structure (SMILES)	% Inhibition [%]	Z score
O=S(=O)(NCCOc1ncccc1Cl)c1cccs1	-4	0.69
CCC(C)CN(CC(=O)N1CCc2sccc2C1COc1ccc(C)cc1)C(=O)c1ccc2c(c1)OCO2 (configuration not stated)	-13	1.68
Cc1cc(N(C)Cc2ccccc2)c2cccc(C(=O)O)c2n1	-31	3.65
NC(=O)Cc1ccccc1OCCC1CCCC1	-7	0.93
CN1CCN(c2nccs2)C[C@@]12CCC(=O)N(CC1CC1)CC2	10	-1.45
O=C(CCn1cc(Cl)cn1)NC[C@@H]1COc2ccccc2C1	-3	0.36
Cn1c(-c2cc3n(n2)CCN(Cc2cnn4cccnc24)C3)nc2ccccc21	-5	0.93
Cc1cc(C)c2c(c1)OCC[C@@H]2NC1CCN(C)CC1	-3	0.3
C=CCNC(=O)Nc1cc(Br)ccc1Br	-2	0.4
CN1CCN(C(=O)c2ccnc(C3CCCC3)n2)CC1(C)C	2	-0.49
CCN(C(=O)c1cccc(C)n1)[C@H]1COC[C@@H]1O	-3	0.55
O[C@@H](CNCc1ccc(Br)c2cccnc12)c1ccco1	14	-1.38
CCn1c(CO)nnc1[C@H]1C[C@H](NC(=O)CCc2c(C)noc2C)C1	10	-1.14
C[C@](O)(CNCc1ccsc1S(N)(=O)=O)c1ccccc1	-16	2.44
Cc1nscc1C(=O)OCc1nc2ccc(F)cc2o1	-3	0.53
CC(=O)NCC(=O)N1CC(n2cc(COc3ccccc3)nn2)C1	-12	1.8
CC1(C)CN(c2ccc(CS(C)(=O)=O)cn2)C[C@]1(C)O	-2	0.46
CS(=O)(=O)NCC1(Cc2ccccc2)CCC1	-1	0.23
Cn1cc(Br)c(N)cc1=O	7	-1.35
CN1CC[C@H](C(=O)NCCc2cccnc2)CC1=O	-12	1.51
